Results reported in the supplement of paper PMC10441789.
Some of the results follow. Antibody binding of pooled human sera (four to six donors per pool; dilution not stated) to peptides of the Trypanosoma cruzi antigen TSSA on microarrays. Quantile-normalised fluorescence in arbitrary units, mean of duplicate arrays; higher = more binding. No active / inactive call. The uninfected pools are read here as the healthy donors of the same country. The strongest signals lie near the top of the scale (about 60,000).

How the values were obtained:
Experiment in all cases: antibody binding signal (normalised fluorescence) (arbitrary fluorescence units); higher = stronger serum antibody binding to peptide
[1] = system: pooled sera of chronic Chagas disease patients, Argentina
Procedure: (§1)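 Microarray of 15-residue peptides over residues 30-55 of Trypanosoma cruzi TSSAII, each with 1 to 10 substitutions at naturally variable positions, probed with one serum pool per country.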

[2] = system: pooled sera of chronic Chagas disease patients, Bolivia
Procedure: as §1

[3] = system: pooled sera of chronic Chagas disease patients, Brazil
Procedure: as §1

[4] = system: pooled sera of chronic Chagas disease patients, Colombia
Procedure: as §1

[5] = system: pooled sera of chronic Chagas disease patients, Mexico
Procedure: as §1

[6] = system: pooled sera of chronic Chagas disease patients, USA
Procedure: as §1

[7] = system: pooled sera of uninfected people, Argentina
Procedure: as §1

[8] = system: pooled sera of uninfected people, Bolivia
Procedure: as §1

[9] = system: pooled sera of uninfected people, Brazil
Procedure: as §1

[10] = system: pooled sera of uninfected people, Colombia
Procedure: as §1

[11] = system: pooled sera of uninfected people, Mexico
Procedure: as §1

[12] = system: pooled sera of uninfected people, USA
Procedure: as §1

Row | Sequence | antibody binding signal [1] | antibody binding signal [2] | antibody binding signal [3] | antibody binding signal [4] | antibody binding signal [5] | antibody binding signal [6] | antibody binding signal [7] | antibody binding signal [8] | antibody binding signal [9] | antibody binding signal [10] | antibody binding signal [11] | antibody binding signal [12]
1 | KPAAGETPSQSGASS | 237 | 2760 | 11700 | 116 | 187 | 513 | 166 | 296 | 147 | 166 | 421 | 153
2 | ISTPPSGTENKPATG | 52100 | 49900 | 54900 | 2210 | 7070 | 43100 | 9960 | 2240 | 845 | 1000 | 618 | 1150
3 | KDKKPAAGETPSQPG | 266 | 260 | 24400 | 130 | 148 | 930 | 95.7 | 105 | 104 | 172 | 73.7 | 116
4 | PSGTENKTATGEAPS | 39200 | 35900 | 42600 | 838 | 1230 | 29000 | 1090 | 398 | 248 | 380 | 299 | 372
5 | GKDKKTAAGETPSPS | 523 | 287 | 191 | 909 | 700 | 1490 | 138 | 149 | 87.4 | 211 | 140 | 437
6 | TPPSGKDNKPAAGGA | 3450 | 1300 | 25200 | 1390 | 23400 | 14700 | 1410 | 983 | 200 | 203 | 205 | 238
7 | TENKTAAGGTPSQPG | 25000 | 544 | 792 | 4400 | 329 | 1580 | 455 | 174 | 924 | 295 | 2490 | 164
8 | SGTENKAAAGETPSP | 41700 | 8190 | 17300 | 428 | 417 | 5300 | 400 | 375 | 109 | 114 | 199 | 510
9 | TENKAAAGGAPSQPG | 34000 | 979 | 13500 | 2600 | 457 | 1820 | 224 | 128 | 179 | 174 | 145 | 247
10 | NKTATGGTPSPPGAS | 444 | 863 | 2220 | 426 | 392 | 732 | 759 | 1120 | 467 | 849 | 224 | 1620
11 | GTDKKPATGEAPSPP | 44300 | 41400 | 46800 | 6060 | 507 | 38500 | 947 | 586 | 214 | 277 | 535 | 153
12 | KDKKTAAGGTPSQPG | 248 | 210 | 248 | 3440 | 185 | 1360 | 249 | 91.7 | 232 | 189 | 162 | 116
13 | TSSTPPSGTDNKPAT | 44300 | 50200 | 49000 | 5940 | 14100 | 32200 | 1730 | 702 | 574 | 371 | 1200 | 529
14 | TDNKPATGEAPSPSG | 43800 | 47000 | 49300 | 326 | 181 | 38300 | 847 | 616 | 347 | 122 | 277 | 193
15 | PPSGKEKKTAAGGTP | 1920 | 533 | 1610 | 7130 | 3630 | 3340 | 240 | 433 | 636 | 149 | 282 | 127
16 | TDKKPATGETPSQPG | 29100 | 25300 | 40300 | 278 | 142 | 22000 | 224 | 562 | 374 | 246 | 1550 | 180
17 | NKAATGGAPSQPGAS | 724 | 1570 | 27000 | 417 | 428 | 1270 | 903 | 1000 | 379 | 460 | 244 | 1430
18 | PSGKDKKPATGGTPS | 4040 | 659 | 2450 | 6990 | 5220 | 4240 | 189 | 208 | 163 | 96.8 | 95 | 111
